Measured values as given in paper PMC8560823, “Structural insights into the clustering and activation of Tie2 receptor mediated by Tie2 agonistic antibody” (Nature Communications, 2021).

Target: the molecule itself
Assay: SEC; fluorescence size-exclusion chromatography (FSEC) of full-length Tie2-GFP solubilised from HEK293F membranes by LMNG-CHS

B1: full-length Tie2-GFP wild-type (receptor, human, UniProt Q02763 23-1124, looked up)
chain: AMDLILINSLPLVSDAETSLTCIASGWRPHEPITIGRDFEALMNQHQDPLEVTQDVTREWAKKVVWKREKASKINGAYFCEGRVRGEAIRIRTMKMRQQASFLPATLTMTVDKGDNVNISFKKVLIKEEDAVIYKNGSFIHSVPRHEVPDILEVHLPHAQPQDAGVYSARYIGGNLFTSAFTRLIVRRCEAQKWGPECNHLCTACMNNGVCHEDTGECICPPGFMGRTCEKACELHTFGRTCKERCSGQEGCKSYVFCLPDPYGCSCATGWKGLQCNEACHPGFYGPDCKLRCSCNNGEMCDRFQGCLCSPGWQGLQCEREGIQRMTPKIVDLPDHIEVNSGKFNPICKASGWPLPTNEEMTLVKPDGTVLHPKDFNHTDHFSVAIFTIHRILPPDSGVWVCSVNTVAGMVEKPFNISVKVLPKPLNAPNVIDTGHNFAVINISSEPYFGDGPIKSKKLLYKPVNHYEAWQHIQVTNEIVTLNYLEPRTEYELCVQLVRRGEGGEGHPGPVRRFTTASIGLPPPRGLNLLPKSQTTLNLTWQPIFPSSEDDFYVEVERRSVQKSDQQNIKVPGNLTSVLLNNLHPREQYVVRARVNTKAQGEWSEDLTAWTLSDILPPQPENIKISNITHSSAVISWTILDGYSISSITIRYKVQGKNEDQHVDVKIKNATITQYQLKGLEPETAYQVDIFAENNIGSSNPAFSHELVTLPESQAPADLGGGKMLLIAILGSAGMTCLTVLLAFLIILQLKRANVQRRMAQAFQNVREEPAVQFNSGTLALNRKVKNNPDPTIYPVLDWNDIKFQDVIGEGNFGQVLKARIKKDGLRMDAAIKRMKEYASKDDHRDFAGELEVLCKLGHHPNIINLLGACEHRGYLYLAIEYAPHGNLLDFLRKSRVLETDPAFAIANSTASTLSSQQLLHFAADVARGMDYLSQKQFIHRDLAARNILVGENYVAKIADFGLSRGQEVYVKKTMGRLPVRWMAIESLNYSVYTTNSDVWSYGVLLWEIVSLGGTPYCGMTCAELYEKLPQGYRLEKPLNCDDEVYDLMRQCWREKPYERPSFAQILVSLNRMLEERKTYVNTTLYEKFTYAGIDCSAEEAA
notes: signal peptide in the construct; full-length human Tie2, residues 1–1124; also called Tie2 WT; WT Tie2; source: HEK293F membranes, solubilised with LMNG-CHS (FSEC); HEK293T, transiently transfected (cell assays); not shown: eGFP, C-terminal, kept
stoichiometry N: 2
